In all, about 3,200 compounds went through this assay and about 110 (3.4%) showed an effect of 50% or more. Some of the results follow.

The record followed here is publication PMC11995724, “Antibiotic target discovery by integrated phenotypic and activity-based profiling of electrophilic fragments” (Cell chemical biology, 2025).

The subject of the test is T1, V. cholerae SAD30.
T1 construct: SAD30
Details: species or system S. aureus MSSA476 (TSB) or V. cholerae SAD30 (LB); 384-well bacterial growth screen at 25 uM, OD600 relative to DMSO control. The conditions noted are these: relative growth, OD600, LB; 25 µM; inhibitor.
Consider `CCCCNC(=O)C(C#N)=Cc1c(Cl)nc2ccccn12` [9-O09, N-butyl-3-{2-chloroimidazo[1,2-a]pyridin-3-yl}-2-cyanoprop-2-enamide], for which the “% of control remaining” value was 88.1713%.

For the compound `Cl.O=C(CCl)NC1(c2nc(-c3ccccc3)c[nH]2)CCCC1` [7-J08, 2-chloro-N-[1-(4-phenyl-1H-imidazol-2-yl)cyclopentyl]acetamide hydrochloride], the “% of control remaining” value worked out at 90.1371%.

Consider `CC(Cl)C(=O)N1CCN(c2cc(-c3ccccc3F)n[nH]2)CC1` (stereo not drawn) [6-N20, 2-chloro-1-{4-[3-(2-fluorophenyl)-1H-pyrazol-5-yl]piperazin-1-yl}propan-1-one], for which the “% of control remaining” value is 84.7853%.

For `C=CC(=O)N1CCCC(CNS(=O)(=O)C2CC2)C1` (stereo not drawn) [3-G21, N-{[1-(prop-2-enoyl)piperidin-3-yl]methyl}cyclopropanesulfonamide], the “% of control remaining” value came out at 99.1472%.

On to `Cc1cc(C(=O)CCl)c(C)n1C(c1ccccc1)c1ccccc1` [10-I08, 2-chloro-1-[1-(diphenylmethyl)-2,5-dimethyl-1H-pyrrol-3-yl]ethan-1-one], for which the “% of control remaining” value is 92.8891%.

As to `C=CC(=O)NCCn1cc(C2CCOC2)cn1` (stereo not drawn) [2-L09, N-{2-[4-(oxolan-3-yl)-1H-pyrazol-1-yl]ethyl}prop-2-enamide], the “% of control remaining” value stood at 89.7327%.

`C=CC(=O)NCCC(=O)N1CCC(C)(C)S(=O)(=O)CC1` [3-G19, N-[3-(7,7-dimethyl-1,1-dioxo-1lambda6,4-thiazepan-4-yl)-3-oxopropyl]prop-2-enamide]: the “% of control remaining” value is reported as 95.9713%.

For `CCNC(=O)C(C#N)=Cc1ccc(OC(F)F)cc1` [8-E05, 2-cyano-3-[4-(difluoromethoxy)phenyl]-N-ethylprop-2-enamide], the “% of control remaining” value turned out to be 78.3821%.

As to `O=C(NC1CCCN(C(=O)CCl)C1)c1cc2ccccc2o1` (stereo not drawn) [5-D05, N-[1-(2-chloroacetyl)piperidin-3-yl]-1-benzofuran-2-carboxamide], the “% of control remaining” value was determined as 103.058%.

For the compound `C=CC(=O)N1Cc2ccccc2C[C@@H]1C(=O)NC1CC1` [2-G06, (3R)-N-cyclopropyl-2-(prop-2-enoyl)-1,2,3,4-tetrahydroisoquinoline-3-carboxamide], the “% of control remaining” value was 95.7541%.

Regarding `CC(Cl)C(=O)Nc1c(Cl)cc(Cl)cc1Cl` (stereo not drawn) [6-K09, 2-chloro-N-(2,4,6-trichlorophenyl)propanamide], the “% of control remaining” value is 82.8135%.

Turning to `C=CC(=O)NCc1cccc2c1OCO2` [1-E07, N-[(1,3-dioxaindan-4-yl)methyl]prop-2-enamide], the “% of control remaining” value worked out at 92.8251%.

For the compound `C=CC(=O)N1CCC(C(=O)NCCc2c(C)n[nH]c2C)CC1` [2-D04, N-[2-(3,5-dimethyl-1H-pyrazol-4-yl)ethyl]-1-(prop-2-enoyl)piperidine-4-carboxamide], the “% of control remaining” value came to 106.099%.

Take `CCOC(=O)c1cnn2ccc(NC(=O)C(C)Cl)cc12` (stereo not drawn) [5-N21, ethyl 5-(2-chloropropanamido)pyrazolo[1,5-a]pyridine-3-carboxylate]: the “% of control remaining” value turned out to be 92.1299%.

Consider `CC(C)Oc1ccccc1C=C(C#N)C(=O)Nc1ccc(Cl)cc1` [9-L20, N-(4-chlorophenyl)-2-cyano-3-[2-(propan-2-yloxy)phenyl]prop-2-enamide], for which the “% of control remaining” value stood at 86.2678%.

Regarding `C=CC(=O)NCc1cc(C(F)(F)C(F)(F)F)on1` [3-B19, N-{[5-(1,1,2,2,2-pentafluoroethyl)-1,2-oxazol-3-yl]methyl}prop-2-enamide], the “% of control remaining” value amounted to 110.086%.

Regarding `N#CC(=Cc1ccc(N2CCOCC2)cc1)C(=O)NCC1CCCO1` (stereo not drawn) [9-O10, 2-cyano-3-[4-(morpholin-4-yl)phenyl]-N-[(oxolan-2-yl)methyl]prop-2-enamide], the “% of control remaining” value amounted to 86.9477%.

For `N#CC(=Cc1cccc(F)c1F)C(=O)NC(N)=O` [8-H04, {2-cyano-2-[(2,3-difluorophenyl)methylidene]acetyl}urea], the “% of control remaining” value stood at 77.2944%.

Consider `CSc1ccc(C(=O)CCl)cc1` [10-E07, 2-chloro-1-[4-(methylsulfanyl)phenyl]ethan-1-one], for which the “% of control remaining” value was found to be 0%.

As to `CNC(=O)c1cc(OC2CCN(C(=O)C(C)Cl)C2)ccn1` (stereo not drawn) [7-G03, 4-{[1-(2-chloropropanoyl)pyrrolidin-3-yl]oxy}-N-methylpyridine-2-carboxamide], the “% of control remaining” value is on record as 92.7804%.

As for `Cc1nn(C)c(NC(=O)C(C)Cl)c1-c1ccccc1` (stereo not drawn) [7-F21, 2-chloro-N-(1,3-dimethyl-4-phenyl-1H-pyrazol-5-yl)propanamide], the “% of control remaining” value was 81.0177%.

Turning to `C=CC(=O)NC(C)(C)c1nc(-c2ccccc2F)c(C)s1` [1-H04, N-{2-[4-(2-fluorophenyl)-5-methyl-1,3-thiazol-2-yl]propan-2-yl}prop-2-enamide], the “% of control remaining” value is 113.346%.

With `CC(C)(C)C(=O)NCc1ccc(C(=O)CCl)s1` [10-P10, N-{[5-(2-chloroacetyl)thiophen-2-yl]methyl}-2,2-dimethylpropanamide], the “% of control remaining” value came to 110.657%.

Take `C=CC(=O)N1CCC(Cc2nc(CC)no2)CC1` [3-A11, 1-{4-[(3-ethyl-1,2,4-oxadiazol-5-yl)methyl]piperidin-1-yl}prop-2-en-1-one]: the “% of control remaining” value turned out to be 116.791%.

In the case of `Cc1cccc(NC(=O)C(C#N)=Cc2ccc(F)cc2)c1` [9-E12, 2-cyano-3-(4-fluorophenyl)-N-(3-methylphenyl)prop-2-enamide], the “% of control remaining” value is 80.0136%.

Regarding `C=CC(=O)NCCC1COCCO1` (stereo not drawn) [2-H15, N-[2-(1,4-dioxan-2-yl)ethyl]prop-2-enamide], the “% of control remaining” value was 92.6662%.

Turning to `C=CC(=O)NCC1(c2ccccc2Cl)CCCCC1` [1-A17, N-{[1-(2-chlorophenyl)cyclohexyl]methyl}prop-2-enamide], the “% of control remaining” value was 63.0792%.

Consider `Cc1ccc2nc(-c3ccc(N4C(=O)C=CC4=O)cc3)sc2c1` [10-K18, 1-[4-(6-methyl-1,3-benzothiazol-2-yl)phenyl]-2,5-dihydro-1H-pyrrole-2,5-dione], for which the “% of control remaining” value is reported as 99.1233%.

Take `CC(Cl)C(=O)NCc1ccc(F)cc1` (stereo not drawn) [5-A19, 2-chloro-N-[(4-fluorophenyl)methyl]propanamide]: the “% of control remaining” value is given as 104.739%.

Consider `N#CC(=Cc1sc2ccccc2c1Cl)C(=O)Nc1nccs1` [9-F15, 3-(3-chloro-1-benzothiophen-2-yl)-2-cyano-N-(1,3-thiazol-2-yl)prop-2-enamide], for which the “% of control remaining” value is 76.0707%.

With `C=CC(=O)Nc1nc2c(s1)-c1cc(OC)ccc1CC2` [1-J21, N-{8-methoxy-4H,5H-naphtho[2,1-d][1,3]thiazol-2-yl}prop-2-enamide], the “% of control remaining” value came to 88.7892%.

`C=CC(=O)N1CCCC(Cc2noc(C)n2)C1` (stereo not drawn) [1-L20, 1-{3-[(5-methyl-1,2,4-oxadiazol-3-yl)methyl]piperidin-1-yl}prop-2-en-1-one]: the “% of control remaining” value is 89.5486%.

For `Cc1ccc2nc(-c3ccc(NC(=O)CCl)cc3)sc2c1` [6-I05, 2-chloro-N-[4-(6-methyl-1,3-benzothiazol-2-yl)phenyl]acetamide], the “% of control remaining” value worked out at 96.9191%.

For `COc1ccc(Cl)cc1CNC(=O)CCl` [6-A16, 2-chloro-N-[(5-chloro-2-methoxyphenyl)methyl]acetamide], the “% of control remaining” value worked out at 95.2507%.

Turning to `N#CC(=Cc1cccc([N+](=O)[O-])c1)C(=O)NCc1ccc(Cl)cc1` [8-F16, N-[(4-chlorophenyl)methyl]-2-cyano-3-(3-nitrophenyl)prop-2-enamide], the “% of control remaining” value was 65.8736%.

Take `O=C(CCl)N1C2CCC1c1ccccc12` [5-M11, 1-{11-azatricyclo[6.2.1.0,2,7]undeca-2,4,6-trien-11-yl}-2-chloroethan-1-one]: the “% of control remaining” value is 91.2893%.

Consider `O=C(CCl)Nc1ccccc1C(=O)Nc1ccc(F)cc1` [6-D12, 2-(2-chloroacetamido)-N-(4-fluorophenyl)benzamide], for which the “% of control remaining” value is on record as 87.9704%.

Regarding `C=CC(=O)N1CCC(C(=O)NC2CCOC3(CCSCC3)C2)CC1` (stereo not drawn) [2-B12, N-{1-oxa-9-thiaspiro[5.5]undecan-4-yl}-1-(prop-2-enoyl)piperidine-4-carboxamide], the “% of control remaining” value was 92.6662%.

For `Cc1ccc2[nH]c3c(c2c1)CCCC3N(C)C(=O)CCl` (stereo not drawn) [6-H07, 2-chloro-N-methyl-N-(6-methyl-2,3,4,9-tetrahydro-1H-carbazol-1-yl)acetamide], the “% of control remaining” value is 96.9191%.

In the case of `COc1ccc(C=C(C#N)C(=O)Nc2ccccc2Cl)cc1O` [8-C21, N-(2-chlorophenyl)-2-cyano-3-(3-hydroxy-4-methoxyphenyl)prop-2-enamide], the “% of control remaining” value is 80.4215%.

In the case of `CCCc1cc(NC(=O)CCl)n(-c2ccccc2)n1` [4-M03, 2-chloro-N-(1-phenyl-3-propyl-1H-pyrazol-5-yl)acetamide], the “% of control remaining” value was 103.17%.

On to `CC(Cl)C(=O)NCCn1cccc1` (stereo not drawn) [7-G21, 2-chloro-N-[2-(1H-pyrrol-1-yl)ethyl]propanamide], for which the “% of control remaining” value was found to be 84.3218%.

`C=CC(=O)NC12CC3(C)CC(C)(CC(O)(C3)C1)C2` [1-K17, N-(3-hydroxy-5,7-dimethyladamantan-1-yl)prop-2-enamide]: the “% of control remaining” value is 86.0987%.

In the case of `C=CC(=O)N1CCCn2nc(CO)cc2C1` [3-M10, 1-[2-(hydroxymethyl)-4H,5H,6H,7H,8H-pyrazolo[1,5-a][1,4]diazepin-5-yl]prop-2-en-1-one], the “% of control remaining” value worked out at 96.1478%.

As to `C=CC(=O)NCc1ccc(-c2noc(C)n2)cc1` [3-P22, N-{[4-(5-methyl-1,2,4-oxadiazol-3-yl)phenyl]methyl}prop-2-enamide], the “% of control remaining” value is on record as 119.79%.
